# Experimental data reported in paper PMC6212790.
# The list shows a part of the results. At the low end of the ranking, values are background and their order means little.
# Biological target: T1, GST-Rok (full length) (UniProt O34857)
# T1 sequence: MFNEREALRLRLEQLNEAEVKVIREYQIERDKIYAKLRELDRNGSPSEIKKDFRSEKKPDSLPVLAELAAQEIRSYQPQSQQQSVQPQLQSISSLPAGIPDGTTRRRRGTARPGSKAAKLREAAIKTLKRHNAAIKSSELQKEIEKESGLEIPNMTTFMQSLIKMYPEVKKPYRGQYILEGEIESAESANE
# Assay: protein binding microarray;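 note: rank score from −0.5 (least bound) to 0.5 (best bound)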
# Conditions: Rok is a gene silencer of Bacillus subtilis; high values mean tight binding; most listed sequences are background and not binding sites; double strand, one strand shown
row,Sequence,binding signal [E-score]
1,GTTGTCCA,-0.109
2,ACTTAGAT,0.178
3,ACAGGTAC,0.127
4,GTTGGTGA,-0.00845
5,TATAGCAA,0.279
6,AGTCTATA,0.199
7,GCCAAACA,-0.0134
8,ACCTTGCA,0.00836
9,GTGCAAAA,0.0784
10,CCCGATAG,0.0924
11,CCCTCAAG,-0.33
12,CCGTGAGC,-0.28
13,CCAGGGAA,-0.236
14,GAGCGGAA,-0.238
15,TCCACAGA,-0.0426
16,AGCTTCAA,-0.0974
17,CAGGGGCG,-0.326
18,AACGGGCT,-0.12
19,CGCCCGCA,-0.278
20,AACGTTCT,0.178
21,CCCAGTTA,-0.191
22,ATTCCGGG,-0.12
23,ACTATATC,0.331
24,ATGGAATA,0.178

row,Sequence,binding signal [E-score]
1,AAAGTTCC,0.0577
2,ACGGCATC,-0.114
3,CGTACGGC,-0.00666
4,GGGATCAC,-0.332
5,GTACTCAC,-0.12
6,ACGGCTCA,-0.117
7,AAGACGCG,-0.209
8,CGTAGGAC,-0.151
9,AGACAAAC,-0.000255
10,AGTCGCCA,-0.31
11,CGTTGTTC,0.119
12,AAGTGCAC,0.0133
13,AAAAATCT,0.00788
14,ATAACTTA,0.265
15,GCCTCGAC,-0.0833
16,ACGTTGCA,0.0396
17,GGGAGAAC,-0.179
18,AGCTTATC,0.0235
19,CTACAGCC,0.168
20,ATACAAAG,0.29
21,GCACTGCC,-0.278
22,AGAGCGCA,-0.186
23,CTTTGCAC,0.0441
24,ACAGAGAA,0.0819

row,Sequence,binding signal [E-score]
1,CTGTTGTC,-0.0202
2,CTTGGTCC,-0.205
3,ACCCGCTC,-0.107
4,GGCGAACA,-0.132
5,ACATCACT,0.101
6,ATGTAACA,0.161
7,TCCCTCGA,-0.117
8,AGGCATAT,0.171
9,CTCAATCC,-0.117
10,GAGGGTGC,-0.162
11,ATTTAGGG,0.000918
12,CAAGCATC,0.00574
13,CTGTGTCC,-0.0853
14,TAATCGCA,0.0752
15,ACATACGA,0.126
16,ATGTATTC,0.147
17,GTATTGTA,0.238
18,AAGGACCC,-0.317
19,AAAGGGCT,-0.285
20,AGAGCCAC,-0.225
21,CGAGGTTA,0.0111
22,AGGGTCTC,-0.367
23,ATGTCCCG,-0.167
24,ACCCCTCT,-0.302

row,Sequence,binding signal [E-score]
1,CACGCATC,0.0339
2,AGCTACCT,0.164
3,CTACGAAG,0.0895
4,AAATTATC,0.319
5,ATGATTTA,0.0907
6,ACCGAAAA,0.241
7,ATAGAGTG,0.00769
8,CCTGCAAC,-0.0674
9,CATCGCCG,-0.247
10,AACTAATA,0.357
11,CGATGGAA,0.0214
12,TCCGGGCA,-0.232
13,AAACCACA,0.04
14,ACTTAGAG,0.0709
15,ATAATCGA,0.196
16,ATAGACAA,-0.00553
17,AATGTGGA,0.0587
18,ACAGACGA,-0.048
19,GATATGCC,-0.104
20,AGAAATTC,0.228
21,ATTATCGG,0.219
22,AACTGAAG,-0.0822
